# Among all 52,000 compounds or so, about 4,300 (8.3%) were called active. Cut-off read from the data, not from the text of the source: active = survival mostly below about 52% (no sharp cut-off); inactive = mostly above about 56%. Some of the results follow.
# System: DeltatarO mutant
# Test: growth inhibition of S. aureus wild type versus tarO mutant, primary screen, teichoic acid synthesis inhibitors, RN4220, OD600 (AID 463173)
# Details: OD600, 18 h, active compounds read low, screened at 18.75 µg/mL (by protocol)
row,Structure (SMILES),survival
1,Cc1cccc(N2CCN(c3c4c(nc5nncn35)CCC4)CC2)c1C,inactive: 78%
2,COc1ccc(S(=O)(=O)c2cn(Cc3ccccc3)c3ccc(OC)cc3c2=O)cc1,inactive: 84%
3,COc1cc(-c2nnc(SCC(=O)Oc3ccccc3Cl)o2)cc(OC)c1OC,inactive: 84%
4,CN(C)c1ccc(C(CNS(=O)(=O)c2ccc(F)cc2)N2CCc3ccccc32)cc1 (configuration not stated),active: 32%
5,COc1ccccc1NC(=O)c1cc(S(=O)(=O)N2CCc3ccccc32)ccc1F,inactive: 81%
6,COc1ccc(NC(=O)c2cc3c(=O)n(Cc4cccnc4)ccc3nc2C)cc1Cl,inactive: 106%
7,Cc1ccn2c(Nc3ccc4c(c3)OCCO4)c(-c3ccc(C)s3)nc2c1,inactive: 117%
8,Cc1ccc2nc(SCC(=O)Nc3ccc(C#N)cc3)[nH]c2c1,active: 64%
9,COc1ccc(OC)c(NC(=O)CCc2nc(-c3ccc(C)cc3)no2)c1,inactive: 70%
10,Cc1c(C(=O)N2CCC(C)CC2)c(S(=O)(=O)N2CCN(c3cccc(Cl)c3)CC2)c(C)n1C,inactive: 94%
11,COc1ccc(S(=O)(=O)c2cn(Cc3ccccc3)c3cc(F)c(F)cc3c2=O)cc1,inactive: 112%
12,CN1C(=O)c2[nH]nc(-c3ccc(F)cc3)c2C1c1ccccn1 (configuration not stated),inactive: 57%
13,COc1ccc(Nc2cc(C(=O)NCc3ccccc3)c3ccccc3n2)cc1OC,inactive: 105%
14,CC1CCC/C(=C(/C#N)c2nc(-c3ccccc3O)cs2)C1 (configuration not stated),inactive: 65%
15,O=c1c(S(=O)(=O)c2ccc(Cl)cc2)cn(Cc2ccc(F)cc2)c2ccc(F)cc12,inactive: 109%
16,CCOc1ccc(C(=O)NCc2ccc3c(c2)CCN3C(=O)c2ccc(C)cc2)cc1OCC,inactive: 67%
17,Cc1c(Nc2ncnc3sc4c(c23)CCCC4)c(=O)n(-c2ccccc2)n1C,inactive: 91%
18,CC(C)CCN(Cc1ccco1)C(=O)Cn1ncc2c([nH]c3ccccc32)c1=O,inactive: 115%
19,Cc1cc(C)n(C(=O)CNc2ccccc2Cl)n1,inactive: 91%

row,Structure (SMILES),survival
1,Nc1cc(S(=O)(=O)C(F)(F)F)cc(S(=O)(=O)C(F)(F)F)c1,inactive: 110%
2,O=C(NC1CCCCCC1)N1CCOCC1,inactive: 97%
3,COc1ccccc1Cc1nc2ccccc2nc1SCC(=O)N1CCC(C)CC1,inactive: 89%
4,Cc1cccc(C(=O)Nc2ccc(N3CCN(c4ccc(F)cc4)CC3)c(C(=O)O)c2)c1,inactive: 91%
5,CCOC(=O)c1cc(-c2ccccc2)n(CCCC(=O)Nc2cc(C)ccc2OC)c1C,inactive: 82%
6,COc1ccc(NC(=O)Cn2c(=O)n(Cc3ccc(C(=O)NCc4ccccc4Cl)cc3)c(=O)c3ccccc32)cc1,inactive: 83%
7,COc1ccc(Cn2nnc3c(=O)[nH]c(C4CCN(C(=O)c5ccc(C)cc5)CC4)nc32)cc1OC,active: 24%
8,CCN(CC)CCCNC(=O)CN1N=C(c2ccccc2)CCC1=O,inactive: 87%
9,Cc1cc(F)ccc1NC(=O)Cn1c(=O)ccc2cc(S(=O)(=O)N3CCC(C)CC3)ccc21,inactive: 78%
10,Cc1cccc(NC(=O)CSc2nc3ccc(NC(=O)COc4ccccc4F)cc3s2)c1,inactive: 94%
11,Cc1ccc(NC(=O)C2CCCN2S(=O)(=O)c2ccc3c(c2)CCCC(=O)N3)cc1Cl (configuration not stated),inactive: 89%
12,CC(NC(=O)c1ccco1)c1ccccc1 (configuration not stated),inactive: 93%
13,O=C(CSc1ccc2nc(-c3ccccc3)cn2n1)Nc1cccc(F)c1,inactive: 90%
14,CC(C(=O)N1CCCCC1)N1CCC(N2CCCCC2)CC1 (configuration not stated),inactive: 96%
15,COc1ccc(NC(=O)c2c(NC(=O)Cc3ccccc3)sc3c2CCCC3)cc1,inactive: 124%
16,Cc1cc(C)cc(NC(=O)Cn2c(C(F)(F)F)nc3ccccc32)c1,active: 67%
17,Cc1sc(NC(=O)c2ccccc2F)c(C(=O)O)c1C,inactive: 61%
18,Cc1oc(-c2cccc(Cl)c2)nc1Cn1c(SCc2ccccc2F)nc2ccncc21,inactive: 63%
19,Cc1ccccc1NC(=O)CSc1nnc(-c2cccs2)o1,inactive: 71%

row,Structure (SMILES),survival
1,CCCCNC(=O)C1CCN(Cc2ccccc2OCC)CC1,inactive: 73%
2,COc1ccc(CCNC(=O)c2ccc3c(c2)N(Cc2ccccc2C)C(=O)c2ccccc2S3)cc1OC,inactive: 118%
3,COc1ccccc1NC(=O)CSC1=Nc2ccccc2C2=NC(CC(=O)NCc3cccs3)C(=O)N12 (configuration not stated),inactive: 83%
4,Cc1nn(CC(=O)N2CCN(c3cccc(C(F)(F)F)c3)CC2)c(=O)c2cccn12,inactive: 92%
5,Cc1nn(C)c2c1c(C(F)(F)F)cc(=O)n2C(C)C(=O)NCc1ccccc1Cl (configuration not stated),inactive: 102%
6,Cc1cc(C)c2c(c1)c1n[nH]c(=S)nc1n2C,inactive: 76%
7,Cc1ccc(NC(=O)Cn2nnc(C(=O)NCc3cccs3)c2N)cc1Cl,inactive: 92%
8,COC(=O)c1sccc1S(=O)(=O)N(CC(=O)NCc1ccc(F)cc1)c1ccc(Cl)cc1,inactive: 88%
9,COc1ccc(CNC(=O)c2ccc(CNS(=O)(=O)c3ccc(F)cc3)cc2)cc1,inactive: 82%
10,Cc1cccc(NC(=O)CCc2c(C)nc3c(c(C)nn3C(C)(C)C)c2C)c1C,inactive: 56%
11,O=C1COc2ccc(-c3cc(-c4ccccc4)c4c(n3)-c3cc(Cl)ccc3OC4)cc2N1,inactive: 80%
12,CCN(C(=O)c1cn(CC)c(=O)c2cc(OC)c(OC)cc12)c1ccc(C)c(C)c1,inactive: 169%
13,Cc1ccc(N2CCN(S(=O)(=O)c3ccc4[nH]c5c(c4c3)CCCCC5)CC2)c(C)c1,inactive: 102%
14,COc1ccc(CNC(=O)c2cnc(N3CCOCC3)c3ccccc23)cc1,inactive: 70%
15,Fc1ccc(-c2cn3cc(Cc4ccccc4)sc3n2)cc1,inactive: 81%
16,COc1ccc(NC(=O)CSc2nc(-c3ccco3)cc(C(F)(F)F)n2)cc1Cl,active: 38%
17,CCCN(CCC)C(=O)Cn1c(=O)n(-c2ccc(Cl)cc2)c(=O)c2c3c(sc21)CCCC3,inactive: 103%
18,CCc1ccc2oc(-c3cc(NC(=O)c4cc([N+](=O)[O-])ccc4N4CCOCC4)ccc3Cl)nc2c1,inactive: 54%
19,Cc1ccc(Cl)cc1N1CCN(C(=O)c2cc3c(-c4ccccc4F)nn(C)c3s2)CC1,inactive: 66%
